About 230 (0.21%) of roughly 110,000 compounds showed an effect of 50% or more. The list shows a part of the results.
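Further: 30 min substrate incubation versus DMSO and 10 µM JCP410 controls.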

The target in the assay is DPAP1 (Plasmodium falciparum, UniProt Q8IIJ9). The assay is described as follows: primary screen, percent inhibition; read by cleavage of a fluorogenic dipeptide substrate; higher = more effect of the substance. Also on record: species or system P. falciparum D10 trophozoite lysates; single well.
Chain of DPAP1 (Q8IIJ9 whole entry, looked up): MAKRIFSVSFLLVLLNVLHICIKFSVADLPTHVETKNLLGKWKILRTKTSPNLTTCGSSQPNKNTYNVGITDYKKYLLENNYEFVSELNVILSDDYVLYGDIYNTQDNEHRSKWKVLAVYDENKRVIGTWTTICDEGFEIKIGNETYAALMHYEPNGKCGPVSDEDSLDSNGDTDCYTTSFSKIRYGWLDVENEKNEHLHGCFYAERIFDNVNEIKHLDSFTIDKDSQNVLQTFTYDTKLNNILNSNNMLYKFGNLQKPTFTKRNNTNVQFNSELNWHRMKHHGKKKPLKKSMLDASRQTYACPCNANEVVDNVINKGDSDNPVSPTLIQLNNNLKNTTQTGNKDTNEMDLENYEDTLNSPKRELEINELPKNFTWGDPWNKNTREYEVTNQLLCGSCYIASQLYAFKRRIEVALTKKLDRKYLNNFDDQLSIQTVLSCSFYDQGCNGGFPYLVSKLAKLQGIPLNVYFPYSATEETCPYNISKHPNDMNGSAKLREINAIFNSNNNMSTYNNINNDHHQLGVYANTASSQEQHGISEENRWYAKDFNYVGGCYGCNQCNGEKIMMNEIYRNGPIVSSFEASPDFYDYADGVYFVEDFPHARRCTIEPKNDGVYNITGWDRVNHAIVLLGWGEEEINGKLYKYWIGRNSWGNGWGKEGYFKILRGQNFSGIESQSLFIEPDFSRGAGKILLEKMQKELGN
For the compound `COc1ccc(/C=C2\SC(=S)N(CC(=O)Nc3ccccc3)C2=O)cc1`, the “% Inhibition @ 10 uM” value came out at 2.86%.
Regarding `O=C(NCC1COc2ccccc2O1)C1C2C=CC3(CN(Cc4ccccc4Cl)C(=O)C13)O2` (stereo not shown), the “% Inhibition @ 10 uM” value was 1.83%.
Turning to `Cc1ccc(-c2nc(CSc3nc4cccnc4[nH]3)c(C)o2)cc1`, the “% Inhibition @ 10 uM” value is 7.01%.
As for `Cc1ccc(NC(=O)CN2CCN(Cc3ccccc3)CC2)cc1Br`, the “% Inhibition @ 10 uM” value is reported as -3.25%.
`NC(=O)c1ccccc1NS(=O)(=O)c1ccc(Cl)cc1`: the “% Inhibition @ 10 uM” value is listed as 2.39%.
On to `CCN(CC)CCNC(=O)CSc1nc2nc(C)c(Cc3ccccc3C)c(C)n2n1`, for which the “% Inhibition @ 10 uM” value is given as -4.23%.
Take `Cc1cc(C)c2c3c(sc2n1)C1(CCC2(CC1)OCCO2)C(C#N)=C(N)O3`: the “% Inhibition @ 10 uM” value was -2.28%.
`CS(=O)(=O)CCC(C(=O)N1CCN(Cc2ccccc2)CC1)N1Cc2ccccc2C1=O` (stereo not shown): the “% Inhibition @ 10 uM” value is -0.234%.
Turning to `CC(C)NC1=N/C(=C\c2ccco2)C(=O)N1c1ccccc1`, the “% Inhibition @ 10 uM” value is on record as -6.17%.
Regarding `Cc1nnn(C23CC4CC(CC(C(=O)NCc5ccccc5)(C4)C2)C3)n1`, the “% Inhibition @ 10 uM” value is on record as -2.78%.
Consider `COc1cc2c(cc1OC)C(c1cc(Br)ccc1O)NCC2` (stereo not shown), for which the “% Inhibition @ 10 uM” value is listed as -2.59%.
`O=C1Nc2ccc(Br)cc2C1(O)Cc1ccccn1` (stereo not shown): the “% Inhibition @ 10 uM” value worked out at 2.09%.
Regarding `Clc1ccc(C2NCCc3c2[nH]c2ccccc32)c(Cl)c1` (stereo not shown), the “% Inhibition @ 10 uM” value is 3.1%.
For `COc1cc2c(cc1OC)C(c1ccccc1Cl)CC(=O)N2` (stereo not shown), the “% Inhibition @ 10 uM” value is -1.98%.
On to `CCOc1ccc(NC(=O)COc2ccc(Cl)cc2C)cc1`, for which the “% Inhibition @ 10 uM” value is listed as -9.81%.
Next, `CC(=O)c1ccc(/C=C/C(=O)O)o1`: 26.5%; `CCOc1ccc(-c2nonc2NC(=O)c2cccs2)cc1OCC`: -5.08%.
Next, `Cn1nc(C(=O)N2CCC(Cc3ccccc3)CC2)c2c1-c1ccccc1S(=O)(=O)C2`: -4.78%; `CCOc1cccc(C2C(C#N)=C(N)Oc3cc(C)nc(O)c32)c1OCC` (stereo not shown): -3.63%; `NS(=O)(=O)c1ccc(NC(=O)CCC2CCCCC2)cc1`: 0.316%.
Regarding `CC12CN(Cc3ccccc3Br)CC(C)(CN(C(=S)Nc3ccccc3)C1)C2`, the “% Inhibition @ 10 uM” value was found to be 0.878%.
On to `Cc1ccc2c(CNCc3ccc(C)o3)c(C(=O)O)n(Cc3ccccc3F)c2c1`, for which the “% Inhibition @ 10 uM” value is on record as 1.59%.
In the case of `O=C(Nc1cc(Cl)ccc1Cl)c1cc(Br)ccc1NS(=O)(=O)c1ccc(Cl)c([N+](=O)[O-])c1`, the “% Inhibition @ 10 uM” value is reported as 0.266%.
Turning to `CCCCN(Cc1ccco1)S(=O)(=O)c1ccc(-c2ccc(O)nn2)s1`, the “% Inhibition @ 10 uM” value is recorded as -4.33%.
Next, `CC1CN(C2CCSC2)CC(C)O1` (stereo not shown): 2.99%; `CCCCN(Cc1ccco1)C(=O)Cn1nc(Cc2ccncc2)c2ccccc2c1=O`: 19%.
As to `Cc1cccc(OCc2nn3c(C4COc5ccccc5O4)nnc3s2)c1` (stereo not shown), the “% Inhibition @ 10 uM” value was found to be 2.89%.
As for `Cc1ccc(S(=O)(=O)NCCCCCC(=O)NCCc2ccccc2)cc1`, the “% Inhibition @ 10 uM” value is 1.12%.
As to `Cc1cc(OCCCCCn2ccnc2)cc(C)c1Cl`, the “% Inhibition @ 10 uM” value is given as -8.79%.
In the case of `CC(C)N1CCc2nc3sc(C(=O)NCc4ccc5c(c4)OCO5)c(N)c3cc2C1`, the “% Inhibition @ 10 uM” value is listed as -1.05%.
On to `COc1ccccc1/C(O)=C(\C#N)c1nc2ccccc2[nH]1`, for which the “% Inhibition @ 10 uM” value is 2.7%.
Consider `COc1ccc(C2Nn3c(C)nnc3SC2C(=O)NCC2CCCO2)cc1` (stereo not shown), for which the “% Inhibition @ 10 uM” value is listed as -1.94%.
Next, `Cc1cc(C)c2c3ccccc3n(C)c2n1`: -1.44%; `Cn1c(=O)c(-c2cccc(Cl)c2)c(O)c2ccccc21`: 2.11%; `O=C(NC1CC1)c1cc(-c2ccccc2)nc2ccccc12`: -1.5%.
With `Nc1[nH]ncc1-c1ccc(OCc2ccc(Cl)cc2)cc1`, the “% Inhibition @ 10 uM” value is recorded as -3.96%.
For `N=C(Cc1cccc2ccccc12)NOC(=O)c1cccs1`, the “% Inhibition @ 10 uM” value is 3.66%.
As to `O=c1c2ccccc2n2c(-c3ccccc3)nnc2n1CCc1ccccc1`, the “% Inhibition @ 10 uM” value turned out to be 1.68%.
As for `COc1ccc(N2C(=O)C3C4c5ccccc5C(C(=O)O)(c5ccccc54)C3C2=O)cc1` (stereo not shown), the “% Inhibition @ 10 uM” value is on record as 11.6%.
Next, `COc1ccc(C)cc1NCc1cccc(C(F)(F)F)c1`: -9.04%; `Cc1ccc(C)c(NCN2C(=O)C3C4C=CC(C4)C3C2=O)c1` (stereo not shown): -4.4%.
Regarding `COc1cc(C(=O)N2CCn3c4c(c5cc(C)ccc53)CCCC42)cc(OC)c1OC` (stereo not shown), the “% Inhibition @ 10 uM” value is on record as -2.18%.
The same measure for `CC(C)N1CC(COc2ccccc2)OC1=O` (stereo not shown): -8.11%; for `COc1ccc(CNc2c(S(=O)(=O)c3ccc(C)cc3)cnc3ccccc23)cc1`: -10.6%.
As for `CCCCOc1ccc(C2=N/C(=C/c3cccs3)C(=O)O2)cc1`, the “% Inhibition @ 10 uM” value turned out to be 0.997%.
For `COc1ccc(OC)c(CN2CCN(Cc3ccc(C(F)(F)F)cc3)CC2)c1`, the “% Inhibition @ 10 uM” value was -2.84%.
As for `CCc1cc2c(cc3c(=O)n(CC(=O)NCc4cccnc4)nc(CC)n32)s1`, the “% Inhibition @ 10 uM” value was 1.68%.
Next, `COc1ccc(CC(C)NC(C)c2cccc3ccccc23)cc1OC` (stereo not shown): -5.65%; `COc1cc(C2C3=C(O)CC(C)(C)CC3=NC3=C2C(=O)CC(C)(C)C3)cc(Cl)c1OCC(=O)O` (stereo not shown): 1.82%.
For the compound `Cc1c(O)cc2n(c1=O)-c1ccccc1C2(C)C`, the “% Inhibition @ 10 uM” value is on record as 0.658%.
With `COc1cc(OC)cc(C(=O)O/N=C(\N)c2cccc(C)c2)c1`, the “% Inhibition @ 10 uM” value turned out to be 0.275%.
Take `CCOc1ccccc1N1CCN(C(=O)CC(C)C)CC1`: the “% Inhibition @ 10 uM” value is recorded as -3.12%.
As for `NC(=O)NC(c1ccccc1)c1cccc(Cl)c1` (stereo not shown), the “% Inhibition @ 10 uM” value was -5.59%.
Next, `C=C(C)CC1(NCc2ccccc2)CCCCC1`: -4.4%; `N/C(=N\OCc1ccc(Cl)cc1Cl)c1nonc1N`: -1.84%; `CCOc1ccc(C2C(C#N)=C(N)Oc3[nH]nc(-c4ccc(F)cc4)c32)cc1OCC` (stereo not shown): -2.56%.
Regarding `CC1=C(c2ccc(F)cc2)S(=O)(=O)N=C1NC1CCCCC1C` (stereo not shown), the “% Inhibition @ 10 uM” value was -7.46%.
The same measure for `COc1ccccc1NC(=O)C1=C(C)N=C2CC(C)(C)CC(O)=C2C1c1ccc(F)cc1` (stereo not shown): 4.7%.
As to `CC[C@@H](C)[C@H](NC(=O)c1cccc2ccccc12)C(=O)N[C@@H](CCc1ccccc1)C(=O)CO`, the “% Inhibition @ 10 uM” value was -3.97%.
Take `O=C(O)[C@]1(c2ccccc2)CC[C@H](Nc2ccccc2)C1`: the “% Inhibition @ 10 uM” value is -2.44%.
With `CN(Cc1ccc(Cl)cc1Cl)CC(O)c1ccccc1` (stereo not shown), the “% Inhibition @ 10 uM” value was -6.62%.
Regarding `COc1ccc(NS(=O)(=O)c2ccc(C)cc2)c(NC(C)=O)c1`, the “% Inhibition @ 10 uM” value is given as -5.49%.
Consider `COc1ccccc1CN1CC(C(=O)NCCc2ccc(Cl)cc2)CC1=O` (stereo not shown), for which the “% Inhibition @ 10 uM” value was found to be 2.18%.
Consider `CC1(C)CC(=O)C2=C(C1)OC(N)=C(C#N)C2c1cccc(Oc2ccccc2)c1` (stereo not shown), for which the “% Inhibition @ 10 uM” value is -4.67%.

These data come from article PMC6919601, “Identification of Plasmodium dipeptidyl aminopeptidase allosteric inhibitors by high throughput screening” (PLoS ONE, 2019).
